The RNAGym collection of RNA variant scans (doi:10.1093/nar/gkz1192)
Read counts are not given, so values of variants with three or more changes are uncertain.

B1: CPEB3 Ribozyme (parent)
chain: UAACAGGGGGCCACAGCAGAAGCGUUCACGUCGCAGCCCCUGUCAGAUUCUGGUGAAUCUGCGAAUUCUGCUGUAUAUCUC

Variants of: B1
Assay: self-cleavage, relative activity (ratio to wild type); higher = more cleavage; in vitro, sequencing
Summary of the method: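 Relative activity compares each variant's cleaved/total read fraction with that of the unmutated ribozyme. To get these fractions, barcoded CPEB3 ribozyme libraries from rounds of error-prone PCR were transcribed with T7 RNA polymerase for 5 hours at 37°C and then given 15 min of DNase I treatment before EDTA was added. The RNAs were reverse transcribed with template switching and sequenced on Illumina, and DNA sequencing linked barcodes to variants. A minimum of 5 reads applied, and three batches were averaged.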

Row | Variant | self-cleavage
1 | A13U U60C U69G A75G | 0.29
2 | A13U U60C U74A | 0.81
3 | A13U U60C U74C | 0.49
4 | A13U U66C C79A | 0.53
5 | A13U U66C U74C | 0.28
6 | A13U U66C U76A | 0.35
7 | A13U U67G C71U | 0.27
8 | A13U U69A A75U | 0.64
9 | A13U U69A U72A | 0.3
10 | A13U U69A U74C | 0.83
11 | A13U U69C U80C | 0.55
12 | A13U U72G A75G | 1.15
13 | C14A A15C A21G U26C | 0.06
14 | C14A A18G U25C | 0.41
15 | C14A A20G A45G U58C G61C | 0.04
16 | C14A A20U G53C U78C | 0.23
17 | C14A A21C U25C | 0.04
18 | C14A A21U U43A U60C U69C | 0.09
19 | C14A A35G U78C | 1.32
20 | C14A C40U U60A U78A | 0.13
21 | C14A G19A A65U U76A | 0.03
22 | C14A G33A U69A U80G | 0.11
23 | C14A U25C A35C C39A | 0.1
24 | C14A U25C U31A A45G | 0.08

Row | Variant | self-cleavage
25 | C14A U43C U78C | 0.41
26 | C14A U54G U60C U72A | 0.18
27 | C14G A15C A20G C29U A47G U51C | 0.14
28 | C14G A15C U49C A56G | 0.2
29 | C14G A15U C81A | 0.49
30 | C14G A57G U67C | 0.14
31 | C14U A15G A18G A47G U51C U67C | 0.22
32 | C14U A15G A35U U41A U43A A45G | 0.04
33 | C14U A15G A35U U43G U48C U51A A64U | 0.1
34 | C14U A15U C17U U67C | 0.19
35 | C14U A15U U43C U67C | 0.06
36 | C14U A18C U78C | 0.31
37 | C14U A18G A28C U60C | 0.08
38 | C14U A18G A45G G53A | 0.7
39 | C14U A18G G19U C23U A45U U51C G52C | 0.05
40 | C14U A18U A21G U41C U69C U80A | 0.08
41 | C14U A18U A65G U72C | 0.25
42 | C14U A18U U26A U51A C59G U74C A77U | 0.2
43 | C14U A20C A28G G33U | 0.06
44 | C14U A20G A57G U67C U72C | 1.12
45 | C14U A20G U41C C81A | 1.04
46 | C14U A21G A56U A64G U78C | 0.19
47 | C14U A21U U26C U51C U60A U76A | 0.03
48 | C14U A21U U60C U69A A77G | 0.12

Row | Variant | self-cleavage
49 | C14U A28C A64G U72A U76A | 0.5
50 | C14U A28G U43C A65C U76C C79U | 0.05
51 | C14U A28G U43G | 0.45
52 | C14U A28G U48C A64U | 0.1
53 | C14U A35G A45G A56G | 1.29
54 | C14U A35G U43A | 1.25
55 | C14U A35G U54C U69C | 1.2
56 | C14U A57G U80A | 1.25
57 | C14U C23U A64G | 0.25
58 | C14U C23U U43A A45G U60C U67A U72A | 0.05
59 | C14U C32U A35G U41A U69C U72C | 0.08
60 | C14U C32U G55U | 0.26
61 | C14U C39U U41A U51C A57G A77G U78C | 0.06
62 | C14U C40G A65G | 0.04
63 | C14U G30U C34G A75G | 0.07
64 | C14U U25A A65G | 0.36
65 | C14U U25A U54C A56G U60C U76G | 0.06
66 | C14U U26A A56G U60C | 0.34
67 | C14U U26A A64G | 1.03
68 | C14U U26A U31C U49C | 0.12
69 | C14U U26C U54C | 0.55
70 | C14U U31C U49C U51A | 0.33
71 | C14U U48C U72A | 0.3
72 | C14U U49A U72C U74A | 1.1

Row | Variant | self-cleavage
73 | C14U U49C A64U U76C | 0.11
74 | C14U U51A U54A | 0.76
75 | C14U U51A U58C C62G | 0.64
76 | C14U U60A U69C U80C | 0.34
77 | C14U U60A U72A | 0.48
78 | A15C A18G A21G G33A U60A U67C U76C | 0.1
79 | A15C A18G G22A A47G | 0.31
80 | A15C A18G U41A | 0.27
81 | A15C A18U G19U U54C A64G | 0.09
82 | A15C A20U U26A U31C A56G U78C U80C | 0.03
83 | A15C A21G A28G U31C U66C | 0.11
84 | A15C A21G A65G A75U | 0.06
85 | A15C A21G G33A U76C | 0.23
86 | A15C A21G U25A A47U | 0.22
87 | A15C A35G A47G U51C A65G | 0.64
88 | A15C A35G A77U | 1.15
89 | A15C A35U U49A U51C C81U | 0.34
90 | A15C A45G G63U U69C U74A | 0.22
91 | A15C A45U U51C A65G U80C | 0.08
92 | A15C A47U A64G | 0.19
93 | A15C A65G U69A U72A | 0.14
94 | A15C C27U U51C | 0.19
95 | A15C C27U U69A | 0.17
96 | A15C C29U U48C U72C U76A | 0.31

Row | Variant | self-cleavage
97 | A15C C32A U51A | 0.04
98 | A15C C37A C40U U49C U60A | 0.25
99 | A15C C68U U74A | 0.52
100 | A15C G16U U26A U41C U78C | 0.38
101 | A15C G19C U43C U58G C79A U80C | 0
102 | A15C G30C U78C | 0.17
103 | A15C G63C U67C U72A | 0.16
104 | A15C U25C A35G U49A U51A | 0.1
105 | A15C U25C A35U U41C A47G A77U | 0.03
106 | A15C U26C A64U | 0.15
107 | A15C U26C U69A G73A | 0.13
108 | A15C U26G U66C | 0.35
109 | A15C U31C U41A U54C A57G A64G U72C | 0
110 | A15C U31C U69A U78C | 0.11
111 | A15C U31C U78C | 0.63
112 | A15C U41A U48C G53A U54C | 0.59
113 | A15C U41A U51A A64G | 0.22
114 | A15C U41C C68A | 0.22
115 | A15C U43C U48A | 0.21
116 | A15C U48C U51A U60C G63A U69C U72C | 0.14
117 | A15C U48C U67A | 0.12
118 | A15C U49C U58A U67C | 0.14
119 | A15C U51A C62U | 0.07
120 | A15G A18G A20U C37U U60G U67C | 0.08

Row | Variant | self-cleavage
121 | A15G A18G A28G C37G G70A | 0.31
122 | A15G A18G A28U A35U A45U U60A | 0.08
123 | A15G A18G A56U U69G | 0.08
124 | A15G A18G A64G | 0.6
125 | A15G A18G G30C U78C | 0.14
126 | A15G A18G G46C A57G U67A | 0.21
127 | A15G A18G G46U C50A A75C | 0.32
128 | A15G A18G U25C U31A U48C | 0.05
129 | A15G A18G U25C U43C U66C | 0.34
130 | A15G A18G U41C U48C U72A | 0.08
131 | A15G A18G U51A A56G U74C | 0.11
132 | A15G A18U A28G A35G | 0.24
133 | A15G A18U A45U U51C | 0.21
134 | A15G A18U A77G | 0.19
135 | A15G A18U U25C U31C U72C | 0.16
136 | A15G A18U U26C U60A | 0.12
137 | A15G A18U U31C G53A | 0.36
138 | A15G A18U U48C A75U | 0.08
139 | A15G A18U U49A | 0.61
140 | A15G A18U U51A | 0.39
141 | A15G A18U U72C G73U U78C | 0.5
142 | A15G A20G A77C U80C | 0.31
143 | A15G A20G U26C C44G A64U | 0.04
144 | A15G A20G U26C U41A A56G | 0.74

Row | Variant | self-cleavage
145 | A15G A20G U26C U51A C68U | 0.33
146 | A15G A20G U26C U51C | 0.33
147 | A15G A20G U31C U66C U72A U74A | 0.11
148 | A15G A20G U60C | 0.14
149 | A15G A20U A21G G46U A56G U67C U69G | 0.05
150 | A15G A20U A28U U67C | 0.57
151 | A15G A20U U31C C34U | 0.16
152 | A15G A20U U41A | 0.27
153 | A15G A20U U72A | 0.16
154 | A15G A21C U80C | 0.13
155 | A15G A21G A28C | 0.33
156 | A15G A21G A28G U67C A75U U78C | 0.03
157 | A15G A21G G22C U26A | 0.06
158 | A15G A21G G33A U54C U67A | 0.22
159 | A15G A21G G63C U72A | 0.09
160 | A15G A21G G70A | 0.24
161 | A15G A21G U31C A45G | 0.15
162 | A15G A21G U41A A57G A64U | 0.11
163 | A15G A21G U43C A64G G70U A77U | 0.14
164 | A15G A21G U48C A75U | 0.34
165 | A15G A21G U49A A65G U72A | 0.13
166 | A15G A21G U49C | 0.11
167 | A15G A21G U58C A64C | 0.2
